This note sets out measurements from US7423058B2, “Inhibitors of hepatitis C virus NS3 protease” (Schering Corporation, priority 2004, dated 2008).

Molecules are shown by their SMILES.

The target of the test is Recombinant heterodimeric HCV NS3/NS4A protease (strain 1a) (Hepatitis C virus genotype 1a, UniProt P27958). Description: Spectrophotometric assay for HCV protease inhibitory activity (chromogenic ester substrates). The class given is biochemical. The conditions noted are these: Table 8; read-out: Ki*.

The term Ki denotes a dissociation constant, usually derived from enzyme kinetics or from competition with a known ligand.

On to `CC(C)(C)[C@H](NC(=O)NC1(C(=O)OCc2ccccc2)CCCCC1)C(=O)N1C[C@H]2[C@@H]([C@H]1C(=O)NC(CC1CC1)C(=O)C(N)=O)C2(C)C` (stereo partly shown) [drawing 1483], for which the Ki is 51 nM.
